Experimental data published in the supplement of paper PMC10126150.
Values marked as one replicate rest on one cluster of the flow cell; about a third of the high ones do not repeat.

tested on: ATP; assay: switch fluorescence ratio, 500 uM ATP over buffer (Cy3 cluster intensity, sum of 5 cycles each) (fold (ratio)); higher = stronger signal-on switching upon ATP binding; sequences stand for … in TCGTCGGCAGCGTCAGATGTGTATAAGAGACAGTTTTTTTTTTTTTTTTTTTTTTTTT…TC; conditions: aptamer strand: ATP DNA aptamer (quencher-CACCTGGGGGAGTATTGCGGAGGAAGG + anchor), 100 nM annealed; ATP concentration: 500 uM; one replicate
In short: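 Per cluster, summed Cy3 intensity from the target cycles was divided by that from the buffer cycles to give the fluorescence ratio, then averaged per switch-domain sequence. Clusters outside 100-1000 RFU were excluded. The Cy3-labelled switching-strand clusters, on a modified Illumina MiSeq flow-cell, were annealed to 100 nM quencher-labelled ATP aptamer and imaged in selection buffer, then after 15 min with 500 uM ATP at 22 °C, for five cycles with NaOH stripping and re-annealing between them.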
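Further: ATP exposure 15 min at 22 °C before imaging.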

| Sequence | switch fluorescence ratio |
| --- | --- |
| ATATATCTGT | 1.02 |
| TGAAGCCTAA | 1.06 |
| ATCACGGATT | 1.04 |
| CCAAAGACAT | 1.04 |
| CGCCCGCCAA | 2.32 |
| GATGACAATG | 1.01 |
| GAAGTTTCAT | 1.01 |
| TTTAGCGTC | 1.02 |
| GGTAGGCGCA | 0.96 |
| TGCCATTAAC | 1 |
| GTTATCGCCG | 1.01 |
| AGGTAAGGTC | 1.02 |
| CAACAAAGGC | 1.01 |
| CGCACGTATC | 1.04 |
| TAAATATTAT | 0.984 |
| TACGCGCGAT | 1.04 |
| TTATTGCA | 1.03 |
| AGAACAGGGT | 1.05 |
| AGATCTTTCG | 1 |
| ACCTAGGATT | 1.04 |
| ATGGTACGTC | 1.01 |
| GTTTAAGCCC | 1.01 |
| GGCAGGATGT | 0.988 |

| Sequence | switch fluorescence ratio |
| --- | --- |
| TCCGTGCCCT | 2.26 |
| GGTTTGGGTC | 0.975 |
| CCCGACCTGC | 1.37 |
| GGAGCGCCAT | 0.994 |
| AGATCATACT | 0.994 |
| GCCAACGCGC | 1.15 |
| TATCCAGGGC | 1.03 |
| ACGCGGCCT | 0.998 |
| CTGTTAAGTG | 0.956 |
| TAGGTCCGGT | 0.995 |
| CAACCTTAAT | 1.02 |
| CCTGGAAGTG | 1.1 |
| ACGCTGTATG | 1.05 |
| AGATATATGG | 0.976 |
| GGGAAGGGCT | 0.961 |
| GACTTAGATG | 1.02 |
| GCGTAAGGAT | 0.982 |
| AGCCATTGAT | 0.957 |
| GGTTCTAAGG | 0.981 |
| GATAGATGAG | 1.02 |
| TGAGTTGAGA | 0.985 |
| GGAGGGTGGG | 0.998 |
| AGATTGCTG | 1 |

| Sequence | switch fluorescence ratio |
| --- | --- |
| GGGTTCGCGG | 1.02 |
| CAGCTGCTTG | 1.03 |
| TTTAGGACTA | 1.02 |
| TTCAGTGGTA | 0.957 |
| TTAACTAAAG | 1.03 |
| TGAGATGATG | 1.02 |
| GACGTTACAG | 1.06 |
| CGCGAAACTA | 0.978 |
| ATGTCTGAGG | 0.987 |
| GCGCAGATGG | 1.16 |
| ACGATCTTGG | 0.981 |
| CTCTATGGT | 0.981 |
| CCTTGGCGCT | 1.09 |
| GAGCGGGCAC | 1.01 |
| AAGCGGTACG | 1.06 |
| CAGGTTGTCG | 0.953 |
| TTGGAGGGCA | 0.972 |
| ACAAGGGTGT | 0.98 |
| ATTATAGAGT | 1.03 |
| GTGTGTAGA | 0.999 |
| TGCACGGTGC | 0.997 |
| TATTGTACGC | 0.986 |
| AACGGGGGAA | 0.96 |

| Sequence | switch fluorescence ratio |
| --- | --- |
| TTGAGGGTC | 0.954 |
| GCCTGATGTG | 1.01 |
| AATGATGTCT | 0.99 |
| TGCAAATGGT | 1.01 |
| GGGGGTTG | 1.01 |
| ATCTGTAGAA | 1.01 |
| ATGCCATAGA | 1.02 |
| CTCTTTTGAT | 1.01 |
| GGAATTGGTC | 1.03 |
| CAGGGTTAAC | 1.05 |
| GATGAACTAT | 0.989 |
| TTATATGAGT | 1.05 |
| GATTAGATTG | 0.988 |
| CAGTTATGGG | 0.981 |
| TTGGGAGTGG | 0.995 |
| AAAACGCCGT | 1.01 |
| CGACAATGAT | 1.08 |
| TACGAGTACT | 1.08 |
| CGTGCTGATT | 1 |
| CCTCTGAGCA | 2.63 |
| AAACGTAAAC | 1.26 |
| GGCTTTTCTT | 1.04 |
| AGGTTTATAA | 0.997 |

| Sequence | switch fluorescence ratio |
| --- | --- |
| CCTGGAACTC | 1.05 |
| TTTTTGACAG | 1.06 |
| AATAAATTTG | 1.03 |
| GGGGTCGGAG | 1 |
| TGTCCAAACT | 1.06 |
| ACGCTTTCGA | 1.06 |
| GGGTATCCGA | 1 |
| ACAGCTTAGG | 1.02 |
| ACAGTAAACG | 0.933 |
| CATGACAAAT | 0.984 |
| CTTCTGTGA | 1.02 |
| GGGTGTTTAC | 0.99 |
| CGGTAAATTC | 1.12 |
| TCTGATTTGC | 0.938 |
| GTGGCTTCTG | 1 |
| TATTAATGGG | 1.04 |
| CTCCGCGGCG | 2.84 |
| AGAAGTTCCC | 0.959 |
| CGGGGGTAT | 0.972 |
| TGATCTAATG | 1.01 |
| TTAGTACTCG | 0.993 |
| AGTTCTGGAC | 1.03 |
| ACTGTGTATG | 1.01 |

| Sequence | switch fluorescence ratio |
| --- | --- |
| TTCGTGTTC | 0.963 |
| CGACGGTGGC | 1.14 |
| AATTATCC | 1.01 |
| CAAGAATTGT | 1.03 |
| CAGGCTCGAG | 0.974 |
| CCATTACTCG | 1.15 |
| TTATGATGTC | 1.13 |
| GGCGTCTTGG | 0.994 |
| ATCCCGACCA | 1.01 |
| TCACTGGGAT | 1.01 |
| CGGTGGAGTG | 0.995 |
| TCCTAATGA | 0.984 |
| TGGCTTCTAG | 0.992 |
| TCCCAGCGAA | 1.82 |
| AGGGCGCAGG | 0.922 |
| GCTTATCCGA | 0.988 |
| TAATGAGACT | 1.02 |
| TCCAATGCTC | 2.55 |
| ATTGTAGGTA | 0.971 |
| AGCTCGGATT | 0.994 |
| CGACGGCTGC | 1.48 |
| TTACCCCATC | 1.21 |
| GATGATTCGC | 1.01 |

| Sequence | switch fluorescence ratio |
| --- | --- |
| TTTTCGTAGT | 1.14 |
| GTCGTTTCGT | 0.921 |
| AACACGGAGG | 1 |
| GATTGTTGCA | 1 |
| TACCTTTCGT | 1.15 |
| GGAAGCTGGT | 1.01 |
| TTCGGTGGGC | 0.959 |
| AACTAAAGGT | 1.02 |
| TCGTCTGGGG | 0.996 |
| ATATCGAGGA | 0.964 |
| CTGCCAGGGT | 1.03 |
| TGGGAGCGAG | 1 |
| TTATGTGTGA | 0.991 |
| CAGTGTGAC | 0.99 |
| TTGAGAC | 0.982 |
| CGAGCGGGCG | 0.936 |
| CGCGACAGGA | 1.04 |
| AAGACGGGAC | 1.22 |
| CACATAGTGC | 1.04 |
